{
  "source": "paper PMC9675814",
  "about": "“DNA mechanical flexibility controls DNA potential to activate cGAS-mediated immune surveillance” (Nature Communications, 2022)",
  "proteins": {"B1": {"name": "Full length mouse cGAS R222A (enzyme)", "chain": "not shown", "notes": "mouse cyclic GMP-AMP synthase (cGAS), full length (NM_173386.5), residue substitution made by site mutation of pET-28a-mcGAS; also called R222A mcGAS; source: E. coli BL21 (DE3), purified (Ni Sepharose 6 Fast Flow)"}},
  "target": "the molecule itself",
  "assay": "native gel or EMSA; Native PAGE of full-length WT and R222A mcGAS in loading buffer without β-mercaptoethanol; Coomassie blue staining (SDS PAGE with or without β-mercaptoethanol alongside)",
  "data": [
    {"protein": "B1", "values": [
      {"measurement": "binding result", "result": "binds"}
    ]}
  ]
}
